Reference: PubChem BioAssay AID485294 (National Center for Advancing Translational Sciences (NCATS), 2010)
The whole screen tested about 370,000 compounds, of which about 150 (0.041%) were called active. Inconclusive means that the source gave no clear call. Such entries were picked first, then a sample of the others. Calls come from the whole dose curve; as a rule, active = well fitted inhibition curve with a large enough effect; inconclusive = small, poorly fitted or top-dose-only effect; inactive = flat fitted curve, though single readings scatter. Potencies of inconclusive entries are left out as doubtful fits.

Molecular target: Beta-lactamase (Escherichia coli (strain K12)) (UniProt P00811)
Sequence of UniProt P00811 (P00811 whole entry, looked up): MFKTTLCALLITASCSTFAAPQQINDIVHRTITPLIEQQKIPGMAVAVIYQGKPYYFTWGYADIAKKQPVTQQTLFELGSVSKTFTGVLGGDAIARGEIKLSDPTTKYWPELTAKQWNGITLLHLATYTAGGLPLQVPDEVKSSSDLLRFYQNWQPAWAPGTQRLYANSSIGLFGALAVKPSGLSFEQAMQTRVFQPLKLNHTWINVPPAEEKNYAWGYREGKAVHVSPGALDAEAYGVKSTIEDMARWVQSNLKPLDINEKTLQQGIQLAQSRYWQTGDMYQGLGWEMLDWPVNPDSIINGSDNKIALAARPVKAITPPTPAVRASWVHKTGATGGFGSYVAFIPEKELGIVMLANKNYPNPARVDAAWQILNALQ
Test: qHTS Inhibitors of AmpC Beta-Lactamase (assay with detergent); note: nearly all actives have a fitted effect of over 25% in size;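 for activity change, negative = inhibition: 0% = no-compound wells and -100% = no-enzyme wells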
Conditions: AmpC hydrolysis of nitrocefin, absorbance 480 nm, 0.01% Triton; activity change, negative = inhibition: at 114 µM (top of the series)
In short: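 AmpC (5.3 nM in the dispensed reagent) in 20 mM phosphate pH 7.0 with 0.01% (detergent screen) or 0.0001% Triton X-100 was preincubated with compounds for 15 min at room temperature. Nitrocefin was then added from an 800 uM solution, and hydrolysis was followed at 480 nm.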
Potency is the fitted concentration of half-maximal effect; tags give direction and shape of the fitted curve.

SMILES | activity change, negative = inhibition | Potency
COCC(C)n1c(SCC(=O)NC(=O)NC2CCCC2)nc2ccccc2c1=O (centres undefined) | inactive: 8.17% | 
CN(C)CCN1C(=O)c2oc3ccc(F)cc3c(=O)c2C1c1ccncc1 (centres undefined) |  | inconclusive [inhibitor, full curve, poor fit]
COc1ccc(CNc2nc(-c3ccccc3)nn2C(=O)c2ccc([N+](=O)[O-])cc2)cc1 |  | inconclusive [inhibitor, partial curve, poor fit]
O=C(CSC(=S)N1CCCC1)N1CCN(S(=O)(=O)c2cccc(F)c2)CC1 |  | inconclusive [inhibitor, partial curve, poor fit]
Cc1cc(=O)oc2c(N)c(O)ccc12 |  | inconclusive [inhibitor, partial curve]
COc1ccc(NC(c2ccc(F)cc2)c2nnc(-c3ccccc3Cl)o2)cc1Cl (centres undefined) | inactive: 13.5% | 
CC(C)(C)NC(=O)C(c1ccncc1)N(Cc1cccs1)C(=O)c1csnn1 (centres undefined) |  | inconclusive [inhibitor, full curve, poor fit]
CCOC(=O)N1CCC2(CC1)C(C#N)=C(N)OC1=C2C(=O)CC(C)C1 (centres undefined) | inactive: -9.19% | 
CCN(Cc1ccccc1)C(=O)C1CCN(C/C(C)=C/c2ccccc2)CC1 |  | inconclusive [inhibitor, partial curve, poor fit]
O=C(O)c1ccc(-c2ncc[nH]2)cc1 |  | inconclusive [inhibitor, full curve, poor fit]
Cc1ccc(-n2c(C)nn(CCOc3ccccc3)c2=O)cc1 | inactive: -11% | 
COc1ccc(CCNC(=O)Cn2ncc3c(C)n(Cc4ccccc4F)c(C)c3c2=O)cc1OC | inactive: 1.84% | 
Cc1ccc(-c2csc3nc[nH]c(=O)c23)c(C)c1 |  | inconclusive [inhibitor, partial curve, poor fit]
Cc1ccc2c(c1)sc(=NC(=O)c1cccs1)n2C | inactive: 1.38% | 
Cc1ccc(S(=O)(=O)NCCC(=O)NC(C)c2ccccc2)cc1 (centres undefined) |  | inconclusive [inhibitor, single point]
O=C(CN1C(=O)NC(c2ccccc2)(c2ccccc2)C1=O)NCC(=O)Nc1ccc(F)cc1 |  | inconclusive [inhibitor, full curve, poor fit]
Cc1cc(=O)n(CC(=O)NCCC(C)C)c2c1c(C)nn2C | inactive: -0.994% | 
O=C(O)C1CCCN(S(=O)(=O)c2ccccc2[N+](=O)[O-])C1 (centres undefined) |  | inconclusive [inhibitor, full curve, poor fit]
Cc1oc(-c2ccc(C(=O)NCc3ccc(N(C)C)cc3)cc2)nc1COc1ccccc1 | inactive: -0.901% | 
